# Experimental data published in the supplement of paper PMC3334620.
# Whole data set: some 33,000 sequences, median “E-score (-0.5 to 0.5)” near -0.053, cut for the highest 2% near 0.37. Some of the results follow.
# Biological target: Hap1 (UniProt P0CE41)
# Test: PBM E-score (8-mer binding enrichment) (E-score (-0.5 to 0.5)); higher = stronger / more preferred TF binding; most listed sequences are background and not binding sites
# Settings: protein concentration: 200 nM; construct: GST-DNA-binding domain
# In short: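 Masliner-normalised scans of fluorescent anti-GST signal were the basis for scoring. That signal came from GST-tagged yeast transcription factors applied at about 100-200 nM to double-stranded universal all-10-mer Agilent arrays on fresh or once-stripped slides. Each ungapped eight-base word, pooled with its reverse complement, received an E-score from the Universal PBM Analysis Suite.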
# Sequence of UniProt P0CE41 (P0CE41 whole entry): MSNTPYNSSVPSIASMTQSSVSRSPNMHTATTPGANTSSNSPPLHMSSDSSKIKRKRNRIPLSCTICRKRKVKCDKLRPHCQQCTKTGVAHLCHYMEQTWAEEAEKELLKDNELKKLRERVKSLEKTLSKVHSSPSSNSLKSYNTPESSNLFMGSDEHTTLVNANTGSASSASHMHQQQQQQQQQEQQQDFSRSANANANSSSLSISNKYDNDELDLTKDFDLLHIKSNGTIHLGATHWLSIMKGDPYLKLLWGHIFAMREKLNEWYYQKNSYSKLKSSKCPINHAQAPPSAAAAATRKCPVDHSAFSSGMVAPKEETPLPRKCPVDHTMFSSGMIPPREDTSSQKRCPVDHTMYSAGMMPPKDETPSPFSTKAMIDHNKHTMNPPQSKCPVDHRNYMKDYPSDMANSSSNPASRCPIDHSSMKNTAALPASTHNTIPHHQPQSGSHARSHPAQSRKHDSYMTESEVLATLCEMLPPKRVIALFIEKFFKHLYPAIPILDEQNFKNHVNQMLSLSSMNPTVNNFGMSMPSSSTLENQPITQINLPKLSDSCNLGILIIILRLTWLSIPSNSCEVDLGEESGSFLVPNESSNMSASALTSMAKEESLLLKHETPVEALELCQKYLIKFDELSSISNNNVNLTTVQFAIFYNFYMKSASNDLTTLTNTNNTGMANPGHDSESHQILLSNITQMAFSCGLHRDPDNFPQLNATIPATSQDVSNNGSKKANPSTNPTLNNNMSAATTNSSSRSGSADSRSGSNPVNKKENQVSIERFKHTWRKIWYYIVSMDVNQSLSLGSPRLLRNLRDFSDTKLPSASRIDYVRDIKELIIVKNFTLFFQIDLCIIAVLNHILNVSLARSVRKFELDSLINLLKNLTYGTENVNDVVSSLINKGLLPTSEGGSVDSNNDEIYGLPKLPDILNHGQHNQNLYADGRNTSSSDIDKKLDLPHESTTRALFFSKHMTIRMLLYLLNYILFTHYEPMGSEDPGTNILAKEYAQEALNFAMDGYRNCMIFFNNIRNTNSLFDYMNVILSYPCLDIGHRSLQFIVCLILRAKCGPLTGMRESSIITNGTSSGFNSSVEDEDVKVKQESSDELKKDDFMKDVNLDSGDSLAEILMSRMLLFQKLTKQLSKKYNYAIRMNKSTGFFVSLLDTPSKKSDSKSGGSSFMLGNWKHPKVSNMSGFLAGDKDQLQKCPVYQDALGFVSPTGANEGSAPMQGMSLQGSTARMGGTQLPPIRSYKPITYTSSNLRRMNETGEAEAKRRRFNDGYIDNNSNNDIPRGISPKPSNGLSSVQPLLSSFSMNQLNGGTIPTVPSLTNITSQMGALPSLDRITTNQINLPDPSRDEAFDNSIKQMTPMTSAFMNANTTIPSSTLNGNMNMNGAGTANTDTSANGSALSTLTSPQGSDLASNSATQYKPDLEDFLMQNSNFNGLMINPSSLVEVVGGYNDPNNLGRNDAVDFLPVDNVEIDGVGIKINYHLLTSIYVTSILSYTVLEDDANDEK
row,Sequence,PBM E-score
1,AGAGCTCC,-0.00702
2,ACTCACTA,-0.19
3,ATCGGCAG,0.315
4,ATACAGAC,-0.152
5,ATAGAGAC,-0.157
6,GAGATAAC,0.216
7,GTAGATCA,0.145
8,GTAAGTAA,-0.0427
9,CGAGTAGC,0.109
10,AAAAGATC,-0.112
11,TGAAGTAA,-0.107
12,ACTTAACC,-0.00614
13,GAGCTCCC,0.0706
14,ATCAGGAG,0.0213
15,AGCGCCAC,-0.14
16,AGCTTCAC,-0.218
17,CTTATTCC,0.202
18,CGGCGACC,0.306
19,TACCTGGA,-0.107
20,ACATGCGC,-0.00623
21,AAGGGGAC,-0.0576
22,TGCTATAA,-0.149
23,AATAAATT,0.0772
24,GTAATCTA,-0.0403
25,CACCATGG,-0.302

row,Sequence,PBM E-score
1,ACGCGCTC,0.00375
2,ATCTACAA,-0.162
3,CCCTGTCG,-0.0821
4,AGCCTAAA,-0.137
5,ATCAGGTA,-0.134
6,ATAGTGAG,-0.212
7,AAGTGGAC,-0.0108
8,CACATGCA,-0.126
9,GCCACCCC,-0.0465
10,ACAGACGT,-0.0978
11,CACATATA,-0.138
12,TGAAGTCA,-0.0916
13,CATTGATA,0.0354
14,CCCTGGAC,-0.234
15,GCCTATTA,0.0453
16,CACGACAG,-0.122
17,CATGAACA,-0.122
18,AATTCTCC,0.234
19,AGGCCGCG,0.0338
20,CAAACTCG,0.0982
21,AGTATGAG,-0.101
22,CGTTAGAC,0.0614
23,ATTCGCAC,0.0665
24,GATAGAGA,0.00974
25,ACCGGAAT,0.36

row,Sequence,PBM E-score
1,CAAATGAG,-0.115
2,GAACGGAA,0.282
3,AAAACGAA,0.0585
4,AGCCCGTC,0.0072
5,CGGATGCC,0.125
6,AATATTGG,-0.0469
7,AATGGTTG,0.0245
8,GTTCGAAC,0.0408
9,CTTAAGGA,-0.0778
10,ATGCTCTC,-0.159
11,ACGTGGCG,-0.231
12,TATATAGA,-0.0775
13,AGGTGCGG,0.219
14,ATCGAAAG,-0.0567
15,GGTGCACA,-0.0927
16,AAACATTT,-0.119
17,AAGACAGA,-0.12
18,ACCGCACT,0.16
19,CCTATTTA,0.0388
20,AGGAACCC,-0.0569
21,AATAACAG,-0.0726
22,CAACAGGA,-0.205
23,ATACCCGC,0.253
24,CTACGGGA,0.134
25,AGTCGAAG,-0.235

row,Sequence,PBM E-score
1,ACCTCGCT,0.0563
2,TGTGCACA,-0.212
3,CAACGTAG,-0.25
4,ATACGACG,0.0411
5,GCAGACGA,-0.028
6,CCGTTAGA,0.318
7,GCGGCACC,0.0384
8,CGCTCTTA,0.157
9,CTGACCCA,-0.119
10,CCCGTTGC,-0.0454
11,GCTGCGAC,-0.234
12,GCAAGTTA,0.0009
13,CGCGGAGC,0.274
14,CATAGTGC,-0.0586
15,GGTTTGAA,0.0975
16,AAGTTAGC,-0.0552
17,ATATTCCG,0.318
18,AGTGTGTC,-0.0863
19,ACACCCGT,0.136
20,GTCCGAAA,0.421
21,CGCAAGGA,-0.104
22,GGGCTATA,-0.0464
23,ACCACTAA,-0.152
24,ACGACAAT,-0.0773
25,AAGGTGGT,-0.0796

row,Sequence,PBM E-score
1,CGAACAAG,0.121
2,ATTAGAGA,-0.186
3,GCATGATA,-0.102
4,CCAGTCAG,-0.243
5,CAAAGAAG,-0.05
6,CCATGGAG,-0.15
7,GACAGCAC,0.197
8,GACAGAAA,-0.0244
9,AGCGGGTC,0.126
10,AACTCGCA,-0.29
11,GCACATTA,-0.0162
12,AGGAGGGG,-0.241
13,AAATTGAA,-0.241
14,CTCACGAA,-0.307
15,ATATGGGA,-0.0202
16,CCTAGCCA,-0.234
17,AAGAGAAC,-0.128
18,CGGCTTAC,0.128
19,AAGGAAAT,-0.0822
20,ATCTGTCC,0.106
21,CGCAGCAG,-0.108
22,GTGCCGAA,0.237
23,AGGCAGGA,-0.229
24,AAGAACAG,-0.248
25,CGAGAGTC,-0.0408

row,Sequence,PBM E-score
1,AGTTGTAC,0.0584
2,CTATTCTC,0.165
3,CTGGGCAC,-0.129
4,CATACTAA,-0.234
5,ACTGATAA,-0.174
6,ACTCCTCT,-0.0603
7,TAGAGATA,0.0856
8,CCGACGTC,0.29
9,ACTGGATA,0.0587
10,CTTGCTAC,-0.174
11,ACACTTAA,-0.171
12,AACCCCGT,0.329
13,ATGTAGGG,0.0517
14,ATTAATCC,0.189
15,CCCACGCA,-0.15
16,TCTGCTAA,-0.0319
17,ACGTGGTC,-0.191
18,AGTTAATG,-0.0334
19,CTTGACGA,-0.192
20,GATACCAA,0.0899
21,CTCGCAAC,-0.237
22,GCCTACGC,-0.271
23,AATAATAG,-0.0859
24,CATCGCGC,0.0953
25,AAAGTATG,-0.0965

row,Sequence,PBM E-score
1,ACGTGGTA,-0.169
2,CAAAAAAG,-0.0757
3,AGCGAATC,0.0408
4,GATACTCC,0.0862
5,GCCTAGAC,-0.0841
6,CAGTATAA,-0.00182
7,AAACAGTC,-0.31
8,TCGTTTCA,-0.0813
9,CGAGTCGA,-0.0614
10,ACATTGCC,-0.00388
11,CGGGAGAG,0.0704
12,TCGAAGAA,-0.122
13,ACAGAAAT,-0.108
14,ACCTGTAA,-0.0772
15,CCCAGTAA,-0.148
16,GCGTTAAC,0.16
17,CTTTATGC,-0.0571
18,ACATCGAG,-0.128
19,TTGTAAAA,-0.116
20,CCCTCCAA,-0.119
21,ACTATCTG,-0.196
22,AAGTGCAT,-0.149
23,AGGCTCAT,-0.159
24,ACCAGAAA,-0.0507
25,CGAGATAG,-0.0743

row,Sequence,PBM E-score
1,TAATCCGA,0.346
2,CTTAAAAG,-0.193
3,ATTCGCAG,-0.0493
4,ACAAGGAG,0.0103
5,AAGTTAGA,-0.0271
6,ACAAGATG,-0.183
7,AAATTGGC,-0.103
8,AACGGCTG,0.0402
9,CCATACAC,0.028
10,AGCGCGAG,-0.00772
11,AAGCCACG,0.046
12,GCACGTCA,-0.132
13,CCTACAAC,0.0727
14,GCCACACC,-0.115
15,ATCACGTA,-0.284
16,ATTTGTAG,-0.172
17,AGAGCGAT,0.0667
18,ATCTCAGG,-0.0639
19,AGCCAACA,-0.189
20,ACCAAAGC,0.0386
21,AGGGTGGG,-0.06
22,ACGCGTGC,0.0518
23,CATGTTAG,-0.318
24,ATGATTTG,-0.153
25,AGCCGGCA,0.334

row,Sequence,PBM E-score
1,AAGCGCCT,0.0872
2,GAGGGCCC,-0.0221
3,CACTTTGA,-0.135
4,CGAATTTA,0.0847
5,ACCCCTGC,-0.214
6,GCAATGTA,-0.155
7,GCATTGGC,-0.311
8,TAGGCATA,-0.153
9,ATTGGATC,-0.0945
10,CGGGAGGC,0.00156
11,TGGTACAA,-0.376
12,ACTAATCC,0.249
13,TATTATGA,-0.0876
14,GCCTGCCC,0.0521
15,AACCGCGG,0.323
16,CTGAGTTA,-0.101
17,CAAAGTTG,-0.203
18,AAGAACAT,-0.0362
19,CACATCGA,-0.25
